Source: PMC4149798
Like-named read-outs stand apart in the source and are kept apart here. Results are given in words; binding and its absence hold for the method and conditions named. Some entries that bind do so weakly or less than the wild type. For some of these results: Sequences can lack the tags named with a protein. Values belong to the molecule of their own block, whether it stands above or below them.

The chains behind the UniProt entries cited, without tags or fusion partners. Where a name states a change or a piece, a line headed by the entry shows the natural chain unless it says otherwise.
UniProt P05205: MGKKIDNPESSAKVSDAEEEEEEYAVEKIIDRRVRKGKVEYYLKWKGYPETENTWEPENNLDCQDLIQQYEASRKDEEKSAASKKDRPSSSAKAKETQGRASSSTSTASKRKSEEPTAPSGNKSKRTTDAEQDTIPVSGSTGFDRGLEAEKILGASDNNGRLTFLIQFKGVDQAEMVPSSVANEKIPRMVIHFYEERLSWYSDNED
UniProt P45975: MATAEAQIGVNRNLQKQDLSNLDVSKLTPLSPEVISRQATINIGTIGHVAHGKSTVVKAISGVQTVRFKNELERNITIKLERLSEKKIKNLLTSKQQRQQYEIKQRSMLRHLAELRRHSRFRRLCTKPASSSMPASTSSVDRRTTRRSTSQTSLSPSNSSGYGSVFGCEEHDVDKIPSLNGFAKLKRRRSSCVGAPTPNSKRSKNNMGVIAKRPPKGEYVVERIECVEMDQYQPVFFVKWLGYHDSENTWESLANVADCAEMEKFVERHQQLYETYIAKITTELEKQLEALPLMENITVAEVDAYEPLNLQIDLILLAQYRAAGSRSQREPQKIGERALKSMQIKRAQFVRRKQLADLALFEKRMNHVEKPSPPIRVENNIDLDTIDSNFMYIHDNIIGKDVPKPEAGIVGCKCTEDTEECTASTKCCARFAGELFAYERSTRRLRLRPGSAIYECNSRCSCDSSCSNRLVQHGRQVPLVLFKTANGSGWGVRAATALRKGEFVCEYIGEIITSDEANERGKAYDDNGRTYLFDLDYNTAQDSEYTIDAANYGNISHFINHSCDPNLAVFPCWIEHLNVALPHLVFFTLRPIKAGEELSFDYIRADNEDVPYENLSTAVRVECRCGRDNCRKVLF

Assays:
[1] = biological target: T1, purified native H1 (in reconstituted chromatin) (Drosophila) (UniProt P02255); assay: in vitro ChIP; about 0.5 pmol His6-tagged protein with 0.2 pmol plasmid DNA, H1-containing or H1-free reconstituted chromatin; 50 mM Tris-HCl pH 7.9, 5 mM MgCl2, 4 mM DTT, 2 ug/ml BSA, 15 min at 27°C; cross-linked, immunoprecipitated with anti-His6, plasmid fragment measured by real-time PCR; both purified
T1 sequence: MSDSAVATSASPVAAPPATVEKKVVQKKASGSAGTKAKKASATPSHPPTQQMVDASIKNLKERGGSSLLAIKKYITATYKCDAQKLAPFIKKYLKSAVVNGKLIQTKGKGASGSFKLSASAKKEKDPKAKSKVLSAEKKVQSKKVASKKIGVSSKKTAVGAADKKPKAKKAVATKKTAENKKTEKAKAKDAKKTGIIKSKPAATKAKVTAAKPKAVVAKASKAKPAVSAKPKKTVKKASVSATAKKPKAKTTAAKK

[2] = biological target: T2, GST fusion of H1 C-terminal domain (H1-C, 120-256) (Drosophila) (UniProt P02255); assay: pull-down; GST or GST fusion proteins incubated with purified STAT92E-His6, recovered on glutathione-Sepharose; bound STAT92E-His6 detected by anti-His6 western; both purified
T2 sequence: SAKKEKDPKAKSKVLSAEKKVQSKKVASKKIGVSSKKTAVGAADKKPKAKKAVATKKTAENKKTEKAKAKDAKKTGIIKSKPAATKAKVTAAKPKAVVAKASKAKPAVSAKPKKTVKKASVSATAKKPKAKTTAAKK

[3] = biological target: T3, GST fusion of H1 N-terminal domain (H1-N, amino acid residues 1-40) (Drosophila) (UniProt P02255); assay: as above
T3 sequence: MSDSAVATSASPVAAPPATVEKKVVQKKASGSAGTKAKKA

[4] = biological target: T4, GST fusion of H1 globular domain (H1-G, residues 41-119) (Drosophila) (UniProt P02255); assay: as above
T4 sequence: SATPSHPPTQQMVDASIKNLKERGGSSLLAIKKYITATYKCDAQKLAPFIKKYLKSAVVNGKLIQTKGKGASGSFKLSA

[5] = biological target: T5, GST-H1 (full-length linker histone H1 fused to glutathione-S-transferase) (Drosophila) (UniProt P02255); assay: as above
T5 sequence: T1 sequence

[6] = biological target: GST-HP1 (full-length heterochromatin protein 1 fused to GST) (Drosophila) (UniProt P05205); assay: as above
[7] = biological target: T1, purified native H1 (in reconstituted chromatin) (Drosophila); assay: in vitro ChIP; about 0.5 pmol His6-tagged protein with 0.2 pmol plasmid DNA, H1-containing or H1-free reconstituted chromatin; 50 mM Tris-HCl pH 7.9, 5 mM MgCl2, 4 mM DTT, 2 ug/ml BSA, 15 min at 27°C; cross-linked, immunoprecipitated with anti-His6, plasmid fragment measured by real-time PCR; both purified; remark: listed apart in the source

binding [1]: binds
Molecule: Su(var)3-9-His6 (from UniProt P45975 1-635) (enzyme)

binding [2]: binds
binding [3]: no binding
binding [4]: no binding
binding [5]: binds
binding [6]: binds
binding [7]: binds
B1: STAT92E-His6 (protein, UniProt Q24151 1-761)
chain: MSLWKRISSHVDCEQRMAAYYEEKGMLELRLCLAPWIEDRIMSEQITPNTTDQLERVALKFNEDLQQKLLSTRTASDQALKFRVVELCALIQRISAVELYTHLRSGLQKELQLVTEKSVAATAGQSMPLNPYNMNNTPMVTGYMVDPSDLLAVSNSCNPPVVQGIGPIHNVQNTGIASPALGMVTPKVELYEVQHQIMQSLNEFGNCANALKLLAQNYSYMLNSTSSPNAEAAYRSLIDEKAAIVLTMRRSFMYYESLHEMVIHELKNWRHQQAQAGNGAPFNEGSLDDIQRCFEMLESFIAHMLAAVKELMRVRLVTEEPELTHLLEQVQNAQKNLVCSAFIVDKQPPQVMKTNTRFAASVRWLIGSQLGIHNNPPTVECIIMSEIQSQRFVTRNTQMDNSSLSGQSSGEIQNASSTMEYQQNNHVFSASFRNMQLKKIKRAEKKGTESVMDEKFALFFYTTTTVNDFQIRVWTLSLPVVVIVHGNQEPQSWATITWDNAFAEIVRDPFMITDRVTWAQLSVALNIKFGSCTGRSLTIDNLDFLYEKLQREERSEYITWNQFCKEPMPDRSFTFWEWFFAIMKLTKDHMLGMWKAGCIMGFINKTKAQTDLLRSVYGIGTFLLRFSDSELGGVTIAYVNENGLVTMLAPWTARDFQVLNLADRIRDLDVLCWLHPSDRNASPVKRDVAFGEFYSKRQEPEPLVLDPVTGYVKSTLHVHVCRNGENGSTSGTPHHAQESMQLGNGDFGMADFDTITNFENF
